{"source": "the supplement of paper PMC3334620", "note": "The full ranking holds about 33,000 sequences; the median of “E-score (-0.5 to 0.5)” is about -0.012, and the highest 2% start at about 0.29. Some of the results follow.", "data": [{"molecular_target": "T1, Ybr033w (UniProt P38073)", "T1 sequence": "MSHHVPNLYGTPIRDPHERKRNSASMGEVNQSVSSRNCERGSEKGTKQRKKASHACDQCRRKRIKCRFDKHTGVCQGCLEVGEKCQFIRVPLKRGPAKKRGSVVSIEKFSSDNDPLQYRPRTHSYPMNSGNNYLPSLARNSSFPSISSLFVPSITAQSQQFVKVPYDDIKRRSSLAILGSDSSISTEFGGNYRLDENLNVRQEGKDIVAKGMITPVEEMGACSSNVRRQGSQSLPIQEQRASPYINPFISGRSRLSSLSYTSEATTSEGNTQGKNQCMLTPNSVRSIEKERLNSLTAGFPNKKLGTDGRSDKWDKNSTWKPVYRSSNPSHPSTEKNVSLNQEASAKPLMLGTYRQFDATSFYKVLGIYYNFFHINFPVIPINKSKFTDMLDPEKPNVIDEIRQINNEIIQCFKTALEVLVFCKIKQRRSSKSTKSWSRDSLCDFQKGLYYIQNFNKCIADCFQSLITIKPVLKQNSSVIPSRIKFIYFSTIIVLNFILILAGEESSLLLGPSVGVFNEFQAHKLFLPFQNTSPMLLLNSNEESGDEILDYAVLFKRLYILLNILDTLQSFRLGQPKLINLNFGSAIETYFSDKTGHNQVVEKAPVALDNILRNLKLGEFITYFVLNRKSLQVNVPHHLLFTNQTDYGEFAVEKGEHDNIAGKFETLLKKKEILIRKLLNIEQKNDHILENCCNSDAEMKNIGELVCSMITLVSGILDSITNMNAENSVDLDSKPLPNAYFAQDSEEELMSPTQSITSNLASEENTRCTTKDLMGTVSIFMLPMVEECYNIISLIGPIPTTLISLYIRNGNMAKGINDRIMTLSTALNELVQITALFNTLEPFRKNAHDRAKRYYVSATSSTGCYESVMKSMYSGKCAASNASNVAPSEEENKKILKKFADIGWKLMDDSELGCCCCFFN", "assay": "PBM E-score (8-mer binding enrichment) (E-score (-0.5 to 0.5)); higher = stronger / more preferred TF binding; most listed sequences are background and not binding sites", "details": "protein concentration: 200 nM; construct: GST-full length", "in_short": "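Detection of bound protein used fluorescent anti-GST, with scans normalised by masliner. The proteins were GST-tagged yeast transcription factors applied at about 100-200 nM to universal all-10-mer Agilent arrays made double-stranded by primer extension. Each ungapped eight-base word, pooled with its reverse complement, was scored with an E-score from the Universal PBM Analysis Suite.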", "values": [{"sequence": "TCGTCAGA", "PBM E-score": -0.11}, {"sequence": "GGCGAGGA", "PBM E-score": -0.203}, {"sequence": "GAGTTATA", "PBM E-score": -0.00286}, {"sequence": "AGGATAGG", "PBM E-score": -0.153}, {"sequence": "CCCTTTTA", "PBM E-score": -0.229}, {"sequence": "CGGACTAG", "PBM E-score": -0.225}, {"sequence": "GCCATACC", "PBM E-score": -0.173}, {"sequence": "GCGAGAGA", "PBM E-score": -0.0885}, {"sequence": "ATGTGGTA", "PBM E-score": 0.184}, {"sequence": "CGTTAGAG", "PBM E-score": -0.0131}, {"sequence": "GAGGACAC", "PBM E-score": -0.117}, {"sequence": "ACCTCCAC", "PBM E-score": -0.122}, {"sequence": "ACTGATCT", "PBM E-score": 0.0733}, {"sequence": "GCGGCAAC", "PBM E-score": -0.148}, {"sequence": "ACATGCGA", "PBM E-score": -0.0958}, {"sequence": "GCTATCCA", "PBM E-score": -0.0558}, {"sequence": "ATTCTTAA", "PBM E-score": 0.0371}, {"sequence": "CCGGGAAC", "PBM E-score": -0.0566}, {"sequence": "CAGCACTC", "PBM E-score": 0.0472}, {"sequence": "ATCGGGTC", "PBM E-score": -0.0512}, {"sequence": "CCACCGGC", "PBM E-score": -0.211}, {"sequence": "CATCGCCG", "PBM E-score": -0.0994}, {"sequence": "ACCCCTTC", "PBM E-score": -0.341}, {"sequence": "GCGACACC", "PBM E-score": -0.198}, {"sequence": "GATTTTGC", "PBM E-score": 0.14}, {"sequence": "CGTCTTTA", "PBM E-score": 0.201}, {"sequence": "CCCTTGCC", "PBM E-score": -0.15}, {"sequence": "ACAAACCT", "PBM E-score": 0.222}, {"sequence": "AATTTCAA", "PBM E-score": 0.223}, {"sequence": "GTAAGAAC", "PBM E-score": 0.132}, {"sequence": "CTCGTAAC", "PBM E-score": 0.149}, {"sequence": "TATCACGA", "PBM E-score": 0.0144}, {"sequence": "ATATAAGG", "PBM E-score": 0.232}, {"sequence": "CCATCAGG", "PBM E-score": -0.25}, {"sequence": "GTAATATA", "PBM E-score": 0.299}, {"sequence": "AACCTTCT", "PBM E-score": -0.108}, {"sequence": "CGGGCACG", "PBM E-score": -0.172}, {"sequence": "ACTGGGCA", "PBM E-score": -0.157}, {"sequence": "ACGTCGCA", "PBM E-score": -0.0609}, {"sequence": "GTATGCTA", "PBM E-score": 0.107}, {"sequence": "CACCACAA", "PBM E-score": 0.0945}, {"sequence": "CCGCTAGG", "PBM E-score": -0.112}, {"sequence": "GTGTCCCA", "PBM E-score": -0.239}, {"sequence": "AGGTCGAG", "PBM E-score": -0.0923}, {"sequence": "GGAGGCAA", "PBM E-score": -0.138}, {"sequence": "CAGCGAAC", "PBM E-score": 0.0498}, {"sequence": "GCGCAATA", "PBM E-score": -0.197}, {"sequence": "GGCACATA", "PBM E-score": 0.0402}, {"sequence": "AGAAGGGC", "PBM E-score": -0.248}, {"sequence": "ATCAGGGG", "PBM E-score": -0.256}, {"sequence": "ATCGATTC", "PBM E-score": 0.0711}, {"sequence": "GGGCTGAA", "PBM E-score": 0.0197}, {"sequence": "CGTTGCCA", "PBM E-score": -0.141}, {"sequence": "CACACACG", "PBM E-score": -0.0904}, {"sequence": "AGAGATAA", "PBM E-score": 0.203}, {"sequence": "AACGCAGA", "PBM E-score": -0.0443}, {"sequence": "AGTTTTTC", "PBM E-score": 0.295}, {"sequence": "CGTGGACC", "PBM E-score": -0.272}, {"sequence": "ATCGGCTG", "PBM E-score": 0.0341}, {"sequence": "CTTCCCAC", "PBM E-score": -0.141}, {"sequence": "GCAACCAA", "PBM E-score": 0.0127}, {"sequence": "TCAACGCA", "PBM E-score": -0.0376}, {"sequence": "GACCCTCC", "PBM E-score": -0.172}, {"sequence": "ATCGACGG", "PBM E-score": -0.207}, {"sequence": "AGAACTAA", "PBM E-score": 0.193}, {"sequence": "GGAACACC", "PBM E-score": -0.0248}, {"sequence": "GACGGTGA", "PBM E-score": -0.0882}, {"sequence": "CCATTCGA", "PBM E-score": 0.0318}, {"sequence": "CGTAGAGC", "PBM E-score": -0.198}, {"sequence": "AAGATGTA", "PBM E-score": 0.224}, {"sequence": "CTCCGAGC", "PBM E-score": 0.0566}, {"sequence": "CATAATTA", "PBM E-score": 0.284}, {"sequence": "ACCCTAAT", "PBM E-score": 0.138}, {"sequence": "ACGGGTTC", "PBM E-score": -0.144}, {"sequence": "GGCTCTAC", "PBM E-score": -0.185}, {"sequence": "TAAGACAA", "PBM E-score": 0.0666}, {"sequence": "CCGCCGCA", "PBM E-score": -0.149}, {"sequence": "CGTCCACA", "PBM E-score": 0.0647}, {"sequence": "CCCGGATA", "PBM E-score": 0.125}, {"sequence": "CTCTCATC", "PBM E-score": -0.169}, {"sequence": "CGGACACC", "PBM E-score": -0.188}, {"sequence": "TAGTCTGA", "PBM E-score": -0.0153}, {"sequence": "GTCCGACA", "PBM E-score": -0.0209}, {"sequence": "GGGCGTTA", "PBM E-score": -0.108}, {"sequence": "AGCGGAGC", "PBM E-score": -0.208}, {"sequence": "CATCGGGA", "PBM E-score": 0.0831}]}]}
